The record followed here is US20170368169A1 (MARENGO THERAPEUTICS, published 2017).

Assay [1] deals with T1, human FAP (generated from SEQ ID NO: 225) (human, UniProt Q12884 26-760, limits assumed).
T1 construct: Antigen construct made in house; also called hFAP
As to the kind of experiment: ELISA on plate-bound antigen, molecule titrated 1 uM-1 pM. A general note: An ELISA detects its analyte on a solid surface through an enzyme-linked reagent.

For assay [2], the target named is T2, human PD1L1 (generated from SEQ ID NO: 178) (human).
T2 construct: Antigen construct made in house; also called hPD1L1; human PDL1
The description is as above.

T1 sequence (Q12884 other isoform, or with tags, fused parts or gaps limits assumed): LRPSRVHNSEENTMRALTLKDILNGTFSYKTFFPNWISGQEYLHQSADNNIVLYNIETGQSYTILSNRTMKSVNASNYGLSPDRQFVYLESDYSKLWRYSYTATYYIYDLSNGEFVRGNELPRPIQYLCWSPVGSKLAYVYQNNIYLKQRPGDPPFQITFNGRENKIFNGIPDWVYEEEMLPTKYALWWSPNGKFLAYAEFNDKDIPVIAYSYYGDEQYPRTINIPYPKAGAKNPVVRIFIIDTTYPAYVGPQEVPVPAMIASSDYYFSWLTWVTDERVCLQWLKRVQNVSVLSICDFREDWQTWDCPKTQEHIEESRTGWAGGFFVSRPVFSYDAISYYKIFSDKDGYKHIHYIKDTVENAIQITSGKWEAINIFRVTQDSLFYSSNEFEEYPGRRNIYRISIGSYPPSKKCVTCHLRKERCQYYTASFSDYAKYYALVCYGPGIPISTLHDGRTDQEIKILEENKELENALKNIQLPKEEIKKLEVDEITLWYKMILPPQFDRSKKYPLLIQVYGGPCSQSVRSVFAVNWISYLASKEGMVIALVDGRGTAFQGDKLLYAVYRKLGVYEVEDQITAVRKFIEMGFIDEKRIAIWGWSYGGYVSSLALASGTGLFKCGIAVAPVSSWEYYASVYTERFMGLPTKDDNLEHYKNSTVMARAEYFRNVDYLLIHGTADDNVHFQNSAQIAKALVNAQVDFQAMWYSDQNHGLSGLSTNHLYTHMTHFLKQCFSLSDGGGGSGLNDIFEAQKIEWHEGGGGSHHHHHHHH

B1: Multispecific molecule 24 (other)
heavy 1: QVQLVQSGAEVKKPGASVKVSCKTSRYTFTEYTIHWVRQAPGQRLEWIGGINPNNGIPNYNQKFKGRVTITVDTSASTAYMELSSLRSEDTAVYYCARRRIAYGYDEGHAMDYWGQGTLVTVSSASTKGPSVFPLAPSSKSTSGGTAALGCLVKDYFPEPVTVSWNSGALTSGVHTFPAVLQSSGLYSLSSVVTVPSSSLGTQTYICNVNHKPSNTKVDKRV[human IgG1 Fc with changes skipped]
light: DIVMTQSPDSLAVSLGERATINCKSSQSLLYSRNQKNYLAWYQQKPGQPPKLLIFWASTRESGVPDRFSGSGFGTDFTLTISSLQAEDVAVYYCQQYFSYPLTFGQGTKVEIKRTVAAPSVFIFPPSDEQLKSGTASVVCLLNNFYPREAKVQWKVDNALQSGNSQESVTEQDSKDSTYSLSSTLTLSKADYEKHKVYACEVTHQGLSSPVTKSFNRGEC
heavy 2: QVQLVQSGAEVKKPGASVKVSCKTSRYTFTEYTIHWVRQAPGQRLEWIGGINPNNGIPNYNQKFKGRVTITVDTSASTAYMELSSLRSEDTAVYYCARRRIAYGYDEGHAMDYWGQGTLVTVSSASTKGPSVFPLAPSSKSTSGGTAALGCLVKDYFPEPVTVSWNSGALTSGVHTFPAVLQSSGLYSLSSVVTVPSSSLGTQTYICNVNHKPSNTKVDKRVEPKSCDKTHTCPPCPAPELLGGPSVFLFPPKPKDTLMISRTPEVTCVVVDVSHEDPEVKFNWYVDGVEVHNAKTKPREEQYNSTYRVVSVLTVLHQDWLNGKEYKCKVSNKALPAPIEKTISKAKGQPREPQVCTLPPSREEMTKNQVSLSCAVKGFYPSDIAVEWESNGQPENNYKTTPPVLDSDGSFFLVSKLTVDKSRWQQGNVFSCSVMHEALHNHYTQKSLSLSPGKGGGGSGGGGSGGGGSFRGPLLPNRPFTTVWNANTQWCLERHGVDVDVSVFDVVANPGQTFRGPDMTIFYSSQLGTYPYYTPTGEPVFGGLPQNASLIAHLARTFQDILAAIPAPDFSGLAVIDWEAWRPRWAFNWDTKDIYRQRSRALVQAQHPDWPAPQVEAVAQDQFQGAARAWMAGTLQLGRALRPRGLWGFYGFPDCYNYDFLSPNYTGQCPSGIRAQNDQLGWLWGQSRALYPSIYMPAVLEGTGKSQMYVQHRVAEAFRVAVAAGDPNLPVLPYVQIFYDTTNHFLPLDELEHSLGESAAQGAAGVVLWVSWENTRTKESCQAIKEYMDTTLGPFILNVTSGALLCSQALCSGHGRCVRRTSHPKALLLLNPASFSIQLTPGGGPLSLRGALSLEDQAQMAVEFKCRCYPGWQAPWCERKSMW
notes: Two Fab arms to FAP and a hyaluronidase arm
As usually defined, the EC50 is the midpoint of the concentration-response curve. In assay [1], B1 showed an EC50 of 144 nM.

B2: Multispecific molecule 26 (other)
heavy: QVQLVQSGAEVKKPGASVKVSCKTSRYTFTEYTIHWVRQAPGQRLEWIGGINPNNGIPNYNQKFKGRVTITVDTSASTAYMELSSLRSEDTAVYYCARRRIAYGYDEGHAMDYWGQGTLVTVSSASTKGPSVFPLAPSSKSTSGGTAALGCLVKDYFPEPVTVSWNSGALTSGVHTFPAVLQSSGLYSLSSVVTVPSSSLGTQTYICNVNHKPSNTKVDKRV[human IgG1 Fc with changes skipped]
light: B1 light
chain: FRGPLLPNRPFTTVWNANTQWCLERHGVDVDVSVFDVVANPGQTFRGPDMTIFYSSQLGTYPYYTPTGEPVFGGLPQNASLIAHLARTFQDILAAIPAPDFSGLAVIDWEAWRPRWAFNWDTKDIYRQRSRALVQAQHPDWPAPQVEAVAQDQFQGAARAWMAGTLQLGRALRPRGLWGFYGFPDCYNYDFLSPNYTGQCPSGIRAQNDQLGWLWGQSRALYPSIYMPAVLEGTGKSQMYVQHRVAEAFRVAVAAGDPNLPVLPYVQIFYDTTNHFLPLDELEHSLGESAAQGAAGVVLWVSWENTRTKESCQAIKEYMDTTLGPFILNVTSGALLCSQALCSGHGRCVRRTSHPKALLLLNPASFSIQLTPGGGPLSLRGALSLEDQAQMAVEFKCRCYPGWQAPWCERKSMWGGGGSGGGGSGGGGSDKTHTCPPCPAPELLGGPSVFLFPPKPKDTLMISRTPEVTCVVVDVSHEDPEVKFNWYVDGVEVHNAKTKPREEQYNSTYRVVSVLTVLHQDWLNGKEYKCKVSNKALPAPIEKTISKAKGQPREPQVCTLPPSREEMTKNQVSLSCAVKGFYPSDIAVEWESNGQPENNYKTTPPVLDSDGSFFLVSKLTVDKSRWQQGNVFSCSVMHEALHNHYTQKSLSLSPGK
notes: One FAP targeting arm and a hyaluronidase arm
For B2, the response in assay [1] was half-maximal at 18.5 nM (EC50).

B3: Multispecific molecule 27 (other)
heavy 1: EVQLLESGGGLVQPGGSLRLSCAASGFTFSSYIMMWVRQAPGKGLEWVSSIYPSGGITFYADTVKGRFTISRDNSKNTLYLQMNSLRAEDTAVYYCARIKLGTVTTVDYWGQGTLVTVSSASTKGPSVFPLAPSSKSTSGGTAALGCLVKDYFPEPVTVSWNSGALTSGVHTFPAVLQSSGLYSLSSVVTVPSSSLGTQTYICNVNHKPSNTKVDKRV[human IgG1 Fc with changes skipped]
light 1: QSALTQPASVSGSPGQSITISCTGTSSDVGGYNYVSWYQQHPGKAPKLMIYDVSNRPSGVSNRFSGSKSGNTASLTISGLQAEDEADYYCSSYTSSSTRVFGTGTKVTVLGQPKANPTVTLFPPSSEELQANKATLVCLISDFYPGAVTVAWKADGSPVKAGVETTKPSKQSNNKYAASSYLSLTPEQWKSHRSYSCQVTHEGSTVEKTVAPTECS
heavy 2: B1 heavy 2
light 2: B1 light
notes: PDL1 arm, FAP arm, hyaluronidase arm
Consider B3, for which the values for the EC50 in assay [1] and in assay [2] were 44 nM and 0.052 nM, respectively.
